Where a chain is given by its changes, count along the chain named. The list shows a part of the results.
T1: RBFOX1 RRM RbFoxmut (Fox-RRM*) (Homo sapiens, UniProt Q9NWB1 109-208, R118D;E147R;N151S;E152T)
T1 sequence: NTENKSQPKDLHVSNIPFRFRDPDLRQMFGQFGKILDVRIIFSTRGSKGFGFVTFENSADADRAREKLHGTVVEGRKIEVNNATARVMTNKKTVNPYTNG

B1: UUCUUCG (DNA:RNA)
RNA: GGGAGACCGGAAUUCAGAUUGUCCUUCUUCGUUAAAUCCCGUCGUAGCCACCA
DNA 1: CAATCTGAATTCCGGTCTCCC
DNA 2: TGGTGGCTACGACGGGATT
B2: GUGAACA (DNA:RNA)
RNA: B1 RNA with U25G, C27G, U28A, U29A, G31A
DNA 1: CAATCTGAATTCCGGTCTCCC
DNA 2: TGGTGGCTACGACGGGATT
B3: AUCAGGC (DNA:RNA)
RNA: B1 RNA with U25A, U28A, U29G, C30G, G31C
DNA 1: CAATCTGAATTCCGGTCTCCC
DNA 2: TGGTGGCTACGACGGGATT
B4: AUAGGUA (DNA:RNA)
RNA: B1 RNA with U25A, C27A, U28G, U29G, C30U, G31A
DNA 1: CAATCTGAATTCCGGTCTCCC
DNA 2: TGGTGGCTACGACGGGATT
B5: GCCCCAU (DNA:RNA)
RNA: B1 RNA with U25G, U26C, U28C, U29C, C30A, G31U
DNA 1: CAATCTGAATTCCGGTCTCCC
DNA 2: TGGTGGCTACGACGGGATT
B6: GUGCUCC (DNA:RNA)
RNA: B1 RNA with U25G, C27G, U28C, G31C
DNA 1: CAATCTGAATTCCGGTCTCCC
DNA 2: TGGTGGCTACGACGGGATT
B7: CAAGCAU (DNA:RNA)
RNA: GGGAGACCGGAAUUCAGAUUGUCCCAAGCAUUUAAAUCCCGUCGUAGCCACCA
DNA 1: CAATCTGAATTCCGGTCTCCC
DNA 2: TGGTGGCTACGACGGGATT
B8: UAUGAAU (DNA:RNA)
RNA: B7 RNA with C25U, A27U, C29A
DNA 1: CAATCTGAATTCCGGTCTCCC
DNA 2: TGGTGGCTACGACGGGATT
B9: UCACAGC (DNA:RNA)
RNA: B7 RNA with C25U, A26C, G28C, C29A, A30G, U31C
DNA 1: CAATCTGAATTCCGGTCTCCC
DNA 2: TGGTGGCTACGACGGGATT

molecular target: T1, RBFOX1 RRM RbFoxmut (Fox-RRM*); experiment: EMSA; HiTS-Eq, 1 nM pool, 10 min; buffer printed only for the single-RNA assays: 10 mM Tris pH 7.5, 150 mM NaCl, 3.4 mM EDTA, 0.001% NP-40, 30 C; settings: tags: His6 N-terminal (pET28a); label: 5' 32P
Procedure, shortened: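 Relative association constants, normalised to the cognate motif, were derived by comparing read counts of each RNA species with those of the control reaction. The RNA sequenced was the free fraction, separated by 8% native PAGE after a 10 min equilibration in 50 µL of 1 nM 5′-radiolabelled RNA (7 randomized nucleotides) with increasing concentrations of purified wild-type or mutant RbFox RRM.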

Binder	binding signal
B1	0.106 KA relative to UGCAUGU
B2	0.103 KA relative to UGCAUGU
B3	0.132 KA relative to UGCAUGU
B4	0.156 KA relative to UGCAUGU
B5	0.0725 KA relative to UGCAUGU
B6	0.0573 KA relative to UGCAUGU
B7	0.122 KA relative to UGCAUGU
B8	0.122 KA relative to UGCAUGU
B9	0.0611 KA relative to UGCAUGU

— paper PMC9911399, “Two distinct binding modes provide the RNA-binding protein RbFox with extraordinary sequence specificity”
